The results in this text go back to patent US20230250147A1, “GLP-1R AGONISTIC PEPTIDES WITH REDUCED ACTIVITY” (SANOFI, priority 2020, published 2023).

Sequences and labels used below:
B1: 105 (protein)
chain: HGEGTFTSDKSQLLEERLAHLFIEWLIKGGHSSIKPPPKGGGGGGGSGGGGSGGGGSA[… human IgG4 Fc with changes …]GGGSGSAHPIPDSSPLLQFGGQVRQRYLYTDDACQTEAHLEIREDGTVGGAADQSPESLLQLKALKPGVIQILGVKTSRFLCQRPDGALYGSLHFDPEACSFRELLLEDGYNVYQSEAHGLPLHLPGCKSPHRDPAPRGPARFLPLPGLPPAPPEPPGILAPQPPDVGSSDPLSMVGSQGRSPSYAS
modifications: Fusion Protein
B2: 112 (protein)
chain: HGEGTFTSDKSQLLEKRLAHLFIEWLLAGGPSSGRPPPKGGGGGGGSGGGGSGGGGSA[… human IgG4 Fc with changes …]GGGSGSAHPIPDSSPLLQFGGQVRQRYLYTDDACQTEAHLEIREDGTVGGAADQSPESLLQLKALKPGVIQILGVKTSRFLCQRPDGALYGSLHFDPEACSFRELLLEDGYNVYQSEAHGLPLHLPGCKSPHRDPAPRGPARFLPLPGLPPAPPEPPGILAPQPPDVGSSDPLSMVGSQGRSPSYAS
modifications: Fusion protein
B3: 108 (protein)
chain: YGEGTFTSDKSQLLEERLVHLFIEWLIAGGHSKIKPPPKGGGGGGGSGGGGSGGGGSA[… human IgG4 Fc with changes …]GGGSGSAHPIPDSSPLLQFGGQVRQRYLYTDDACQTEAHLEIREDGTVGGAADQSPESLLQLKALKPGVIQILGVKTSRFLCQRPDGALYGSLHFDPEACSFRELLLEDGYNVYQSEAHGLPLHLPGCKSPHRDPAPRGPARFLPLPGLPPAPPEPPGILAPQPPDVGSSDPLSMVGSQGRSPSYAS
modifications: Fusion Protein
B4: 106 (protein)
chain: HGEGTFTSDKSQLLEERLAHLFIEWLIAGGHSSGRPPPKGGGGGGGSGGGGSGGGGSA[… human IgG4 Fc with changes …]GGGSGSAHPIPDSSPLLQFGGQVRQRYLYTDDACQTEAHLEIREDGTVGGAADQSPESLLQLKALKPGVIQILGVKTSRFLCQRPDGALYGSLHFDPEACSFRELLLEDGYNVYQSEAHGLPLHLPGCKSPHRDPAPRGPARFLPLPGLPPAPPEPPGILAPQPPDVGSSDPLSMVGSQGRSPSYAS
modifications: Fusion Protein
B5: 107 (protein)
chain: YGEGTFTSDKSQLLEERLAHLFIEWLIAGGHSKIRPPPKGGGGGGGSGGGGSGGGGSA[… human IgG4 Fc with changes …]GGGSGSAHPIPDSSPLLQFGGQVRQRYLYTDDACQTEAHLEIREDGTVGGAADQSPESLLQLKALKPGVIQILGVKTSRFLCQRPDGALYGSLHFDPEACSFRELLLEDGYNVYQSEAHGLPLHLPGCKSPHRDPAPRGPARFLPLPGLPPAPPEPPGILAPQPPDVGSSDPLSMVGSQGRSPSYAS
modifications: Fusion Protein
B6: 113 (protein)
chain: YGEGTFTSDKSQLLEKRLAHLFIEWLIKGGHSSIRPPPKGGGGGGGSGGGGSGGGGSA[… human IgG4 Fc with changes …]GGGSGSAHPIPDSSPLLQFGGQVRQRYLYTDDACQTEAHLEIREDGTVGGAADQSPESLLQLKALKPGVIQILGVKTSRFLCQRPDGALYGSLHFDPEACSFRELLLEDGYNVYQSEAHGLPLHLPGCKSPHRDPAPRGPARFLPLPGLPPAPPEPPGILAPQPPDVGSSDPLSMVGSQGRSPSYAS
modifications: Fusion Protein
B7: 109 (protein)
chain: YGEGTFTSDKSQLLEKELAHLFIEWLIAGGHKSGRPSPKGGGGGGGSGGGGSGGGGSA[… human IgG4 Fc with changes …]GGGSGSAHPIPDSSPLLQFGGQVRQRYLYTDDACQTEAHLEIREDGTVGGAADQSPESLLQLKALKPGVIQILGVKTSRFLCQRPDGALYGSLHFDPEACSFRELLLEDGYNVYQSEAHGLPLHLPGCKSPHRDPAPRGPARFLPLPGLPPAPPEPPGILAPQPPDVGSSDPLSMVGSQGRSPSYAS
modifications: Fusion Protein
B8: 93 (protein)
chain: HGEGTFTSDLSIQLEEEAVQEFIEWLLATGPVSGAPPPSGGGGGGGSGGGGSGGGGSA[… human IgG4 Fc with changes …]GGGSGSAHPIPDSSPLLQFGGQVRQRYLYTDDACQTEAHLEIREDGTVGGAADQSPESLLQLKALKPGVIQILGVKTSRFLCQRPDGALYGSLHFDPEACSFRELLLEDGYNVYQSEAHGLPLHLPGCKSPHRDPAPRGPARFLPLPGLPPAPPEPPGILAPQPPDVGSSDPLSMVGSQGRSPSYAS
modifications: Fusion Protein
B9: 100 (protein)
chain: HGEGTFTSDLSKQLEEEAVRLFIEWLLATGPSSGEPPPEGGGGGGGSGGGGSGGGGSA[… human IgG4 Fc with changes …]GGGSGSAHPIPDSSPLLQFGGQVRQRYLYTDDACQTEAHLEIREDGTVGGAADQSPESLLQLKALKPGVIQILGVKTSRFLCQRPDGALYGSLHFDPEACSFRELLLEDGYNVYQSEAHGLPLHLPGCKSPHRDPAPRGPARFLPLPGLPPAPPEPPGILAPQPPDVGSSDPLSMVGSQGRSPSYAS
modifications: Fusion Protein
B10: 102 (protein)
chain: HSQGTFTSDLSKQLESRRARRFIEWLLATGPESGAPPPSGGGGGGGSGGGGSGGGGSA[… human IgG4 Fc with changes …]GGGSGSAHPIPDSSPLLQFGGQVRQRYLYTDDACQTEAHLEIREDGTVGGAADQSPESLLQLKALKPGVIQILGVKTSRFLCQRPDGALYGSLHFDPEACSFRELLLEDGYNVYQSEAHGLPLHLPGCKSPHRDPAPRGPARFLPLPGLPPAPPEPPGILAPQPPDVGSSDPLSMVGSQGRSPSYAS
modifications: Fusion Protein
B11: 97 (protein)
chain: HGEGTFTSDLSILLEEEAVRLFIEWLLATGPVSGAPPPSGGGGGGGSGGGGSGGGGSA[… human IgG4 Fc with changes …]GGGSGSAHPIPDSSPLLQFGGQVRQRYLYTDDACQTEAHLEIREDGTVGGAADQSPESLLQLKALKPGVIQILGVKTSRFLCQRPDGALYGSLHFDPEACSFRELLLEDGYNVYQSEAHGLPLHLPGCKSPHRDPAPRGPARFLPLPGLPPAPPEPPGILAPQPPDVGSSDPLSMVGSQGRSPSYAS
modifications: Fusion Protein
B12: 94 (protein)
chain: HGEGTFTSDLSIQLEEEAVQLFIEWLLATGPVSGAPPPSGGGGGGGSGGGGSGGGGSA[… human IgG4 Fc with changes …]GGGSGSAHPIPDSSPLLQFGGQVRQRYLYTDDACQTEAHLEIREDGTVGGAADQSPESLLQLKALKPGVIQILGVKTSRFLCQRPDGALYGSLHFDPEACSFRELLLEDGYNVYQSEAHGLPLHLPGCKSPHRDPAPRGPARFLPLPGLPPAPPEPPGILAPQPPDVGSSDPLSMVGSQGRSPSYAS
modifications: Fusion Protein
B13: 101 (protein)
chain: HAQGTFTSDLSKQLESRRAQEFIEWLLATGPESGAPPPSGGGGGGGSGGGGSGGGGSA[… human IgG4 Fc with changes …]GGGSGSAHPIPDSSPLLQFGGQVRQRYLYTDDACQTEAHLEIREDGTVGGAADQSPESLLQLKALKPGVIQILGVKTSRFLCQRPDGALYGSLHFDPEACSFRELLLEDGYNVYQSEAHGLPLHLPGCKSPHRDPAPRGPARFLPLPGLPPAPPEPPGILAPQPPDVGSSDPLSMVGSQGRSPSYAS
modifications: Fusion Protein

This assay deals with T1, Human GLP-1R (Homo sapiens, UniProt P43220).
T1 construct: expressed in transfected cells; host or cells: HEK-293
T1 sequence (P43220 24-463): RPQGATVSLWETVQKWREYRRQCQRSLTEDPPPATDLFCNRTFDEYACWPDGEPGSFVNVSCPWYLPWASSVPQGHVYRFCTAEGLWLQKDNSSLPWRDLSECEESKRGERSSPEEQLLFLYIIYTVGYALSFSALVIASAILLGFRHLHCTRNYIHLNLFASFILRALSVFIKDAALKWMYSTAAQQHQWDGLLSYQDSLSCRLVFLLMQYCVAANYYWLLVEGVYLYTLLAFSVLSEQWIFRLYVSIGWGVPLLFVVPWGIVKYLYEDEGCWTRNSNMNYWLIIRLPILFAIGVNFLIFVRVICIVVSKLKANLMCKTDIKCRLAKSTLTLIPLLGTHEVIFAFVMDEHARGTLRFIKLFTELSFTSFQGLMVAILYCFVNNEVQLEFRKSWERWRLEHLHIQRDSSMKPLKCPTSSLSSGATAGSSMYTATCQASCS
In words: HTRF cAMP assay in HEK-293 cells, human GLP-1R. In kind it is cell-based. The procedure: Recombinant HEK-293 cells were grown in T175 culture flasks placed at 37° C. to near confluence in medium (DMEM with 10% FBS) and collected in 2 mL vials in cell culture medium containing 10% DMSO in concentrations of 1-5×10^7 cells/mL. Each vial contained 1.8 mL cell suspension. The vials were slowly frozen to −80° C. in an isopropanol chamber, and then transferred to liquid nitrogen for long term storage.
Prior to their use, frozen cells were thawed quickly at 37° C., washed with 20 mL cell buffer (1×HBSS; 20 mM HEPES, 0.1% BSA) and centrifuged for 5 minutes at 900 rpm. Cells were resuspended in assay buffer (cell buffer plus 2 mM IBMX) and adjusted to a cell density of 1×10^6 cells/mL. For measurement, 5 μL cell suspension (final 5×10^3 cells/well) and 5 μL of test compound were added to a well of a 384-well plate, followed by incubation for 30 minutes at room temperature. […] The cAMP content of cells was determined using a kit from Cisbio Corp. (cat. no. 62AM4PEC) based on Homogenous Time Resolved Fluorescence (HTRF).
Background: Time-resolved FRET reads energy transfer from a long-lived donor to a nearby acceptor.
For orientation: EC50 means the concentration that produces a half-maximal response. Low values mean a more potent agent, high ones a less potent agent. Consider B1, for which a half-maximal response (EC50) required 0.00812 nM. Molecule B2 registered an EC50 of 0.00723 nM. For B3 the value was 0.326 nM; for B4, 0.00966 nM; for B5, 0.186 nM.

Molecule B6 had an EC50 of 0.159 nM. Regarding B7, the EC50 was 0.278 nM.

The molecule B8 yielded an EC50 of 0.0484 nM. With B9, it took 0.015 nM to reach a half-maximal effect (EC50). Turning to B10, the EC50 was 0.17 nM. In turn, B11 registered an EC50 of 0.0404 nM. For B12 the value was 0.0665 nM; for B13, 0.0835 nM.
